Experimental data from the supplement of paper PMC10126150.
Sequences with one replicate were seen in a single cluster, so their values are uncertain.

Test system: ATP
Experiment: switch fluorescence ratio, 500 uM ATP over buffer (Cy3 cluster intensity, sum of 5 cycles each) (fold (ratio)); higher = stronger signal-on switching upon ATP binding; sequences stand for … in TCGTCGGCAGCGTCAGATGTGTATAAGAGACAGTTTTTTTTTTTTTTTTTTTTTTTTT…TC
Details: aptamer strand: ATP DNA aptamer (quencher-CACCTGGGGGAGTATTGCGGAGGAAGG + anchor), 100 nM annealed; ATP concentration: 500 uM; one replicate
Outline: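 Clusters with intensities outside 100-1000 RFU were excluded. The remaining Cy3-labelled switching-strand clusters on a modified Illumina MiSeq flow-cell had been annealed to 100 nM quencher-labelled ATP aptamer and imaged in selection buffer, then after 15 min with 500 uM ATP at 22 °C, for five cycles separated by NaOH stripping and re-annealing. The fluorescence ratio, averaged per switch-domain sequence, is each cluster's summed target-cycle Cy3 intensity over its summed buffer-cycle Cy3 intensity.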
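Note: ATP exposure 15 min at 22 °C before imaging.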

| Sequence | switch fluorescence ratio |
| --- | --- |
| GAGCCCCATG | 1.13 |
| TAAACATGGT | 0.939 |
| TCCGGAAAAA | 1.16 |
| ATCAGGACT | 0.963 |
| ATGTCTCAT | 0.983 |
| AGTTGACACT | 0.993 |
| CGGGCCGTTC | 0.952 |
| CAGAGCCCCG | 1 |
| GACACCCTAA | 1.08 |
| CCCCGTGAGC | 3.38 |
| CCTAAAGTT | 1.1 |
| GCTGTATCAT | 1.03 |
| CAGGAAACGT | 1.14 |
| AGATTGACTG | 0.981 |
| GATCCAATTA | 0.949 |
| CACCAGCAGG | 1.08 |
| AAGGTACAGG | 1.1 |
| GTAGTAGCGA | 1.06 |
| TTCACTGATT | 1.02 |
| GACCACTT | 1.08 |
| TAGTCCACGC | 1.04 |
| CCAAAAGGGG | 1.05 |

| Sequence | switch fluorescence ratio |
| --- | --- |
| AGGCGAGGTG | 0.993 |
| TCCAACTTTG | 0.938 |
| CGGATATTAT | 1.01 |
| TACGGATCTT | 1 |
| CATGTTAAAT | 0.998 |
| CCATTCTTTT | 0.987 |
| ATGTACAGTG | 1 |
| CTCTACAAGG | 1.08 |
| CCCGGACACG | 1.05 |
| CTGTCACACG | 1.03 |
| AAGGGAGTCC | 0.991 |
| GGTGCGTTTT | 1.33 |
| CCAGGTGGGG | 1.93 |
| GTAATGCTGG | 1.02 |
| ATTAGGTCC | 0.985 |
| GGGGAGACGG | 0.994 |
| TAAGGCACCT | 1.21 |
| CGCGGGTGAG | 1.02 |
| GCGCTAGGGG | 1.04 |
| TACACCGGGC | 1.09 |
| AAGTCCTTCA | 1.33 |
| AGTTGGGCCT | 1.05 |

| Sequence | switch fluorescence ratio |
| --- | --- |
| TGCAACAACG | 1.01 |
| CGCGGCATTG | 1.05 |
| GGTCTATTTG | 1.01 |
| AGGTTCGTCG | 0.988 |
| TTCTGCCCGC | 1.13 |
| TTACCTAATC | 1.06 |
| GTGCACGGTC | 1.01 |
| GGGAGACGGC | 0.989 |
| TAGAGTCGGG | 1.02 |
| CGAACTTACA | 1.18 |
| TAGTTGGAGT | 1.03 |
| TACGTCCAAT | 1.07 |
| TTAGCTGTCT | 1.01 |
| ACGCTACATC | 1.56 |
| ACGTGTAAGG | 1.03 |
| ACCGTTGTTG | 1.01 |
| AATAAATTAG | 1.06 |
| GCATGCCAGC | 1.01 |
| CACGAAGGTT | 0.966 |
| TTCCCTAAC | 1.04 |
| GATTAACGTC | 1.05 |
| GGAATACGGT | 1.15 |

| Sequence | switch fluorescence ratio |
| --- | --- |
| CGCGGCTCCT | 1.8 |
| TACTGAGAA | 0.997 |
| CTGCCCGGTT | 1.03 |
| CTTTCGTAAC | 1.1 |
| GGTATACCGT | 0.979 |
| CTTAACTGGT | 1.05 |
| CTTAAGTAAT | 1.06 |
| CATGTCTCTG | 1.04 |
| GAGCGGATTG | 0.985 |
| CGGTCCTGAT | 0.981 |
| CTGTCGTGCT | 0.92 |
| TCACTCAAAG | 1.03 |
| GGGCGCACGT | 0.983 |
| CGCGCGATGA | 1.03 |
| ATTCTCGGAC | 1.04 |
| GGCTGTGATA | 0.992 |
| AAGTGAGACG | 1.12 |
| CCTACTTATG | 1.02 |
| ACTGTTTTAA | 1.01 |
